We go through 83 variants from the RNAGym collection of RNA variant scans (doi:10.7554/elife.90254).

B1: OR4K15 (parent)
chain: GUUAACGGUCAUAGGCCAUGGAAACUAGGAGCACCAUUUCGCUGCCAGUGAAGAAAUGAACAAAGAAAAUCUGGGCCAGGCAGGCAUCAAAAGAAAUAGUCUUGCGCUCAACCAGAAAGUCUGUAAUCAUUUUAAGGGUA

Read counts are not given, so values of variants with three or more changes are uncertain.

Variants of B1 are the subject of the data set. Briefly: self-cleavage, relative activity (ratio to wild type); higher = more cleavage; in vitro, sequencing; the parent is a self-cleaving ribozyme.
With A13G A52G G74U, the self-cleavage is 0.25.

A13G U43C A118U A125G: the self-cleavage is 0.49.

Regarding A13G A22G U87C, the self-cleavage amounted to 1.09.

Consider A18C A24G A60G U102C A111G, for which the self-cleavage came to 0.04.

For the variant A13G A69G A78U U87C, the self-cleavage came out at 0.3.

U12G C16U U127C: the self-cleavage is 0.38.

For the variant C16U A30G U37C U130C, the self-cleavage worked out at 0.37.

Consider G15A A23G A96G, for which the self-cleavage was 0.78.

With A18G A22U A140G, the self-cleavage was found to be 1.46.

A18G C42U U70C: the self-cleavage stood at 0.56.

A13G A89U C113U: the self-cleavage was determined as 0.13.

A18G A59G C71A: the self-cleavage stood at 0.83.

Regarding C17U A66G A90G U108C, the self-cleavage came out at 0.02.

In the case of C17G A60G A90G U127C, the self-cleavage turned out to be 0.19.

Turning to A13G A54G A59G A66G U87A U124C A129G, the self-cleavage came out at 0.45.

C16G A23G A51G A110G U122C U127A: the self-cleavage is 0.1.

With C17U A94U A98U, the self-cleavage is 2.1.

A13U A18G U37C A51G A56G U100A: the self-cleavage came out at 0.94.

Turning to A18G A23G A33G A64G A111G, the self-cleavage is 0.04.

Consider G14A A90G A125G, for which the self-cleavage was 0.11.

Take A13G U38A A90G A95G U139C: the self-cleavage is 1.64.

Turning to A13U A18G A47G A56G U100C, the self-cleavage came out at 2.21.

Regarding G15U A27G U72A, the self-cleavage was determined as 0.08.

A13U C61U A67U A89G U131C: the self-cleavage worked out at 1.36.

As to A13G A111C U132C, the self-cleavage amounted to 0.02.

Take A13G A51G A55U U72A: the self-cleavage came to 0.57.

Regarding A13G U19A U39C U120C, the self-cleavage stood at 0.54.

For A18G A23G U87A A94C, the self-cleavage came out at 0.77.

A13G A68G A91C: the self-cleavage worked out at 0.94.

Turning to A13G A33G A94G A129U, the self-cleavage came out at 1.33.

Consider A18G A62G U131C, for which the self-cleavage came out at 0.92.

G14A A36G U38C A66U C85U: the self-cleavage was 0.79.

For A13G A64U A116U, the self-cleavage was 0.5.

For the variant A13U A67G U108C A140G, the self-cleavage is 0.01.

Turning to G14A A22G A118U U132C, the self-cleavage was found to be 0.6.

As for C16A A24G U120C, the self-cleavage amounted to 1.47.

Take A18G A33G G74U U122C: the self-cleavage turned out to be 0.07.

With A13G U108C A129G, the self-cleavage stood at 0.01.

For the variant C17U G21A A118G U124A, the self-cleavage is 0.4.

As to A18G A47U A111G, the self-cleavage came to 0.03.

On to A13G U39A A90G, for which the self-cleavage was 1.1.

In the case of A18G A36C A86U U127C, the self-cleavage stood at 1.3.

Consider G14A A52G A82C, for which the self-cleavage stood at 0.13.

G15A A33U C40U U97C U122A: the self-cleavage came out at 1.1.

Take A18G A94G A96G A117G: the self-cleavage was determined as 1.6.

For the variant A18C U39C A54G A89U U97C U103C C105U U108A, the self-cleavage worked out at 0.01.

A18C A67G A78U: the self-cleavage was found to be 0.12.

A13G U26G A55C G79A: the self-cleavage was determined as 0.08.

On to A13G A27G U97C, for which the self-cleavage was 1.06.

As for A18G A23G U37A, the self-cleavage amounted to 1.04.

A18G A59G A89C: the self-cleavage was 1.43.

As to A13U A78G U87C, the self-cleavage was found to be 0.32.

For A13G U37C A52G G58U G106A A114U, the self-cleavage was 0.

Regarding C17U A24G A66G A69U A114G, the self-cleavage was 0.52.

Consider G14A A18G A23G A47G U124C U127C A134G, for which the self-cleavage came to 0.09.

G14A A18G A60G A62C U102C: the self-cleavage turned out to be 0.83.

With G15C U38C U100C, the self-cleavage is 2.58.

For C16U U100C U108C, the self-cleavage is 0.

For A13U A52G A117G, the self-cleavage came out at 1.58.

With A13G U57C U132A, the self-cleavage is 1.06.

Turning to G14A A23C A86G A89G, the self-cleavage amounted to 1.22.

On to A13G A54G G104A, for which the self-cleavage is 0.13.

A13G U37C A55G U124A: the self-cleavage was found to be 0.65.

As for A13G G80U G106A, the self-cleavage was found to be 0.07.

Take A13G A47G A62G A68G: the self-cleavage was determined as 0.42.

For the variant A13U A22U A23G A33C A78G A116U A140C, the self-cleavage turned out to be 0.1.

Consider A13G U49C C101A, for which the self-cleavage is 0.24.

Regarding G14C A64G A117U, the self-cleavage is 0.53.

In the case of A18G A59G A86C A125U U131C, the self-cleavage was determined as 0.82.

G14A A24G U102A: the self-cleavage is 0.85.

As to A13G A68G A117G, the self-cleavage came to 0.48.

As to A18G A59G C61U A92G A140G, the self-cleavage stood at 1.32.

Consider C17U A94G A118G U122C A129C, for which the self-cleavage is 0.47.

For C17A C76G A96G U120G, the self-cleavage was 0.09.

With G15C U19C U37C A64G A96G A135C, the self-cleavage is 0.7.

As for G14C A47G A67G G74A A89U A126G, the self-cleavage was 0.02.

Turning to A18G A23G A98G, the self-cleavage came to 1.13.

In the case of A13U C42G A110G, the self-cleavage is 0.16.

For A13U A55G A68G A69C A114G A135G, the self-cleavage stood at 0.03.

On to A18G A94G U120C, for which the self-cleavage amounted to 0.84.

For G15A A55G C71U, the self-cleavage came to 0.31.

As for C16U A27G A110G U122C, the self-cleavage was 0.09.

Take A13G A51G A69G: the self-cleavage is 1.27.
